# Results taken from the supplement of paper PMC8728848.
# The list shows a part of the results.
# B1: Cohesin-hMARCO (Homo sapiens) (protein)
# chain: LDDLDAVRIKVDTVNAKPGDTVRIPVRFSGIPSKGIANCDFVYSYDPNVLEIIEIEPGDIIVDPNPDKSFDTAVYPDRKIIVFLFAEDSGTGAYAITKDGVFATIVAKVKEGAPNGLSVIKFVEVGGFANNDLVEQKTQFFDGGANVGDTTEPATPTTPVTTPTTTDDLDAASVRIVGSSNRGRAEVYYSGTWGTICDDEWQNSDAIVFCRMLGYSKGRALYKVGAGTGQIWLDNVQCRGTESTLWSCTKNSWGHHDCSHEEDAGVECSVHHHHHH
# Assays:
# Assay in all cases: glycan array binding signal (z-score within array); higher = stronger binding
# Conditions in all cases: glycan notation: IUPAC condensed, linker removed
# Fuc(a1-2)Gal = biological target: Fuc(a1-2)Gal
# Procedure, shortened: (§1)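 Negative Z-scores can be read as non-binding. The Z-score is calculated within each array and then averaged across arrays of one protein sequence at different concentrations or buffers and across linkers. Arrays, 3228 in all, were curated from the Consortium for Functional Glycomics database and kept only where the protein sequence was available.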
# Fuc(a1-2)Gal(b1-3)GalNAc = biological target: Fuc(a1-2)Gal(b1-3)GalNAc
# Procedure, shortened: as §1
# [1] = biological target: Fuc(a1-2)Gal(b1-3)GalNAc(a1-3)[Fuc(a1-2)]Gal(b1-4)Glc
# Procedure, shortened: as §1
# [2] = biological target: Fuc(a1-2)Gal(b1-3)GalNAc(a1-3)[Fuc(a1-2)]Gal(b1-4)GlcNAc
# Procedure, shortened: as §1
# [3] = biological target: Fuc(a1-2)Gal(b1-3)GalNAc(b1-3)Gal
# Procedure, shortened: as §1
# [4] = biological target: Fuc(a1-2)Gal(b1-3)GalNAc(b1-3)Gal(a1-4)Gal(b1-4)Glc
# Procedure, shortened: as §1
# [5] = biological target: Fuc(a1-2)Gal(b1-3)GalNAc(b1-4)[Neu5Ac(a2-3)]Gal(b1-4)Glc
# Procedure, shortened: as §1
# Fuc(a1-2)Gal(b1-3)GlcNAc = biological target: Fuc(a1-2)Gal(b1-3)GlcNAc
# Procedure, shortened: as §1
# [6] = biological target: Fuc(a1-2)Gal(b1-3)GlcNAc(b1-2)Man(a1-3)[Fuc(a1-2)Gal(b1-3)GlcNAc(b1-2)Man(a1-6)]Man(b1-4)GlcNAc(b1-4)GlcNAc
# Procedure, shortened: as §1
# [7] = biological target: Fuc(a1-2)Gal(b1-3)GlcNAc(b1-2)Man(a1-3)[Fuc(a1-2)Gal(b1-3)GlcNAc(b1-2)Man(a1-6)]Man(b1-4)GlcNAc(b1-4)[Fuc(a1-6)]GlcNAc
# Procedure, shortened: as §1
# [8] = biological target: Fuc(a1-2)Gal(b1-3)GlcNAc(b1-3)Gal(b1-4)Glc
# Procedure, shortened: as §1
# [9] = biological target: Fuc(a1-2)Gal(b1-3)GlcNAc(b1-3)GalNAc
# Procedure, shortened: as §1
# [10] = biological target: Fuc(a1-2)Gal(b1-3)GlcNAc(b1-3)[Fuc(a1-2)Gal(b1-3)GlcNAc(b1-6)]GalNAc
# Procedure, shortened: as §1
# [11] = biological target: Fuc(a1-2)Gal(b1-3)GlcNAc(b1-3)[Gal(b1-4)GlcNAc(b1-6)]Gal(b1-4)Glc
# Procedure, shortened: as §1
# [12] = biological target: Fuc(a1-2)Gal(b1-3)GlcNAc(b1-3)[Neu5Ac(a2-6)Gal(b1-4)GlcNAc(b1-6)]Gal(b1-4)Glc
# Procedure, shortened: as §1
# [13] = biological target: Fuc(a1-2)Gal(b1-3)GlcNAc6S
# Procedure, shortened: as §1
# [14] = biological target: Fuc(a1-2)Gal(b1-3)[Fuc(a1-4)]GlcNAc
# Procedure, shortened: as §1
# [15] = biological target: Fuc(a1-2)Gal(b1-3)[Fuc(a1-4)]GlcNAc(b1-2)Man(a1-3)[Fuc(a1-2)Gal(b1-3)[Fuc(a1-4)]GlcNAc(b1-2)Man(a1-3)]Man(b1-4)GlcNAc(b1-4)GlcNAc
# Procedure, shortened: as §1
# [16] = biological target: Fuc(a1-2)Gal(b1-3)[Fuc(a1-4)]GlcNAc(b1-2)Man(a1-3)[Fuc(a1-2)Gal(b1-3)[Fuc(a1-4)]GlcNAc(b1-2)Man(a1-6)]Man(b1-4)GlcNAc(b1-4)[Fuc(a1-6)]GlcNAc(b1-4)[Fuc(a1-6)]GlcNAc
# Procedure, shortened: as §1
# [17] = biological target: Fuc(a1-2)Gal(b1-3)[Fuc(a1-4)]GlcNAc(b1-3)[Fuc(a1-3)[Gal(b1-4)]GlcNAc(b1-6)]Gal(b1-4)Glc
# Procedure, shortened: as §1
# [18] = biological target: Fuc(a1-2)Gal(b1-3)[Fuc(a1-4)]GlcNAc(b1-3)[Gal(b1-4)GlcNAc(b1-6)]Gal(b1-4)Glc
# Procedure, shortened: as §1
# Fuc(a1-2)Gal(b1-4)Glc = biological target: Fuc(a1-2)Gal(b1-4)Glc
# Procedure, shortened: as §1
# Fuc(a1-2)Gal(b1-4)Glc6S = biological target: Fuc(a1-2)Gal(b1-4)Glc6S
# Procedure, shortened: as §1
# Fuc(a1-2)Gal(b1-4)GlcNAc = biological target: Fuc(a1-2)Gal(b1-4)GlcNAc
# Procedure, shortened: as §1
# [19] = biological target: Fuc(a1-2)Gal(b1-4)GlcNAc(b1-2)Man
# Procedure, shortened: as §1
# [20] = biological target: Fuc(a1-2)Gal(b1-4)GlcNAc(b1-2)Man(a1-3)[Fuc(a1-2)Gal(b1-4)GlcNAc(b1-2)Man(a1-6)]Man(b1-4)GlcNAc(b1-4)GlcNAc
# Procedure, shortened: as §1
# [21] = biological target: Fuc(a1-2)Gal(b1-4)GlcNAc(b1-2)Man(a1-3)[Fuc(a1-2)Gal(b1-4)GlcNAc(b1-2)Man(a1-6)]Man(b1-4)GlcNAc(b1-4)[Fuc(a1-6)]GlcNAc
# Procedure, shortened: as §1
# [22] = biological target: Fuc(a1-2)Gal(b1-4)GlcNAc(b1-2)[Fuc(a1-2)Gal(b1-4)GlcNAc(b1-4)]Man(a1-3)[Fuc(a1-2)Gal(b1-4)GlcNAc(b1-2)Man(a1-6)]Man(b1-4)GlcNAc(b1-4)GlcNAc
# Procedure, shortened: as §1
# [23] = biological target: Fuc(a1-2)Gal(b1-4)GlcNAc(b1-3)Gal(b1-4)GlcNAc
# Procedure, shortened: as §1
# [24] = biological target: Fuc(a1-2)Gal(b1-4)GlcNAc(b1-3)Gal(b1-4)GlcNAc(b1-2)Man(a1-3)[Fuc(a1-2)Gal(b1-4)GlcNAc(b1-3)Gal(b1-4)GlcNAc(b1-2)Man(a1-6)]Man(b1-4)GlcNAc(b1-4)GlcNAc
# Procedure, shortened: as §1
# [25] = biological target: Fuc(a1-2)Gal(b1-4)GlcNAc(b1-3)Gal(b1-4)GlcNAc(b1-3)Gal(b1-4)GlcNAc
# Procedure, shortened: as §1
# [26] = biological target: Fuc(a1-2)Gal(b1-4)GlcNAc(b1-3)GalNAc
# Procedure, shortened: as §1
# [27] = biological target: Fuc(a1-2)Gal(b1-4)GlcNAc(b1-3)[Fuc(a1-2)Gal(b1-4)GlcNAc(b1-6)]GalNAc
# Procedure, shortened: as §1
# [28] = biological target: Fuc(a1-2)Gal(b1-4)GlcNAc(b1-3)[Fuc(a1-3)[Gal(b1-4)]GlcNAc(b1-6)]Gal(b1-4)Glc
# Procedure, shortened: as §1
# [29] = biological target: Fuc(a1-2)Gal(b1-4)GlcNAc(b1-6)GalNAc
# Procedure, shortened: as §1
# [30] = biological target: Fuc(a1-2)Gal(b1-4)GlcNAc6S
# Procedure, shortened: as §1
# [31] = biological target: Fuc(a1-2)Gal(b1-4)[Fuc(a1-3)]GlcNAc
# Procedure, shortened: as §1
binder,measurement,setting,value
B1,glycan array binding signal (z-score),Fuc(a1-2)Gal,-0.136
same,glycan array binding signal (z-score),Fuc(a1-2)Gal(b1-3)GalNAc,-0.068
same,glycan array binding signal (z-score),[1],-0.495
same,glycan array binding signal (z-score),[2],-0.219
same,glycan array binding signal (z-score),[3],3.9
same,glycan array binding signal (z-score),[4],-0.247
same,glycan array binding signal (z-score),[5],0.69
same,glycan array binding signal (z-score),Fuc(a1-2)Gal(b1-3)GlcNAc,0.963
same,glycan array binding signal (z-score),[6],-0.451
same,glycan array binding signal (z-score),[7],-0.557
same,glycan array binding signal (z-score),[8],-0.269
same,glycan array binding signal (z-score),[9],-0.367
same,glycan array binding signal (z-score),[10],-0.3
same,glycan array binding signal (z-score),[11],-0.498
same,glycan array binding signal (z-score),[12],-0.217
same,glycan array binding signal (z-score),[13],0.345
same,glycan array binding signal (z-score),[14],-0.207
same,glycan array binding signal (z-score),[15],0.121
same,glycan array binding signal (z-score),[16],-0.321
same,glycan array binding signal (z-score),[17],-0.541
same,glycan array binding signal (z-score),[18],-0.376
same,glycan array binding signal (z-score),Fuc(a1-2)Gal(b1-4)Glc,0.78
same,glycan array binding signal (z-score),Fuc(a1-2)Gal(b1-4)Glc6S,-0.418
same,glycan array binding signal (z-score),Fuc(a1-2)Gal(b1-4)GlcNAc,0.176
same,glycan array binding signal (z-score),[19],-0.249
same,glycan array binding signal (z-score),[20],0.288
same,glycan array binding signal (z-score),[21],-0.156
same,glycan array binding signal (z-score),[22],-0.246
same,glycan array binding signal (z-score),[23],-0.037
same,glycan array binding signal (z-score),[24],-0.417
same,glycan array binding signal (z-score),[25],-0.436
same,glycan array binding signal (z-score),[26],-0.546
same,glycan array binding signal (z-score),[27],0.864
same,glycan array binding signal (z-score),[28],-0.587
same,glycan array binding signal (z-score),[29],0.573
same,glycan array binding signal (z-score),[30],-0.275
same,glycan array binding signal (z-score),[31],0.133
